According to the supplement of paper PMC10126150:
Sequences with one replicate were seen in a single cluster, so their values are uncertain.

System: ATP
Assay: switch fluorescence ratio, 500 uM ATP over buffer (Cy3 cluster intensity, sum of 5 cycles each) (fold (ratio)); higher = stronger signal-on switching upon ATP binding; sequences stand for … in TCGTCGGCAGCGTCAGATGTGTATAAGAGACAGTTTTTTTTTTTTTTTTTTTTTTTTT…TC
Conditions: aptamer strand: ATP DNA aptamer (quencher-CACCTGGGGGAGTATTGCGGAGGAAGG + anchor), 100 nM annealed; ATP concentration: 500 uM; one replicate
Procedure, shortened: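 Switching-strand clusters labelled with Cy3 on a modified Illumina MiSeq flow-cell were annealed to 100 nM quencher-labelled ATP aptamer, imaged in selection buffer, and re-imaged after 15 min with 500 uM ATP at 22 °C. This was done over five cycles with NaOH stripping and re-annealing in between. The fluorescence ratio is summed target-cycle over summed buffer-cycle Cy3 intensity per cluster, averaged per switch-domain sequence, excluding clusters outside 100-1000 RFU.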
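Note: ATP exposure 15 min at 22 °C before imaging.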

| Sequence | switch fluorescence ratio |
| --- | --- |
| CGGGACAGT | 0.96 |
| CGCGTCGTGC | 1.03 |
| CTGTCGGGAT | 1.13 |
| AGTTGAAGAT | 0.971 |
| AAGTAATAG | 1.23 |
| AAATAGGTCC | 1.05 |
| CAGCACAGGT | 1.5 |
| CAAATGGGCA | 0.977 |
| ACGTTGCCAA | 1.05 |
| GGAAAGCGAG | 0.958 |
| GCAATCCACA | 1.19 |
| TGAACTCATG | 0.98 |
| CGGTAGATG | 0.978 |
| ATCGGTAGAC | 1.01 |
| CGGCGCTACT | 3.03 |
| ATGCTCGGGT | 1.02 |
| GGCCCGG | 0.993 |
| GGTCCTT | 1.02 |
| CGCGTGCTG | 0.992 |
| TGTATAATCA | 0.989 |
| GCCAGGGCCG | 1.03 |
| GTTGACATGC | 1.03 |
| GTTGTACTAC | 1.01 |

| Sequence | switch fluorescence ratio |
| --- | --- |
| CAGCCTAAGC | 0.991 |
| GCTGTAGCCT | 1.02 |
| TACTCTAGGG | 1 |
| CTCGTACAGT | 1.01 |
| TCAAAGGTCC | 0.971 |
| GGCTCTGAGC | 1.03 |
| CAGCGTTTTT | 0.995 |
| AAACTACTGG | 1.01 |
| TTAACTTCTA | 0.981 |
| GTTCCCTGTT | 0.965 |
| TATACCGATA | 1.05 |
| CGAAAAAAGT | 1.01 |
| TAGTTCGTGT | 0.983 |
| AACTGGGAGC | 1.01 |
| TGCCTGTGGC | 1.06 |
| AGGCGAGTGT | 0.989 |
| TAACCTGCTT | 1.05 |
| GTCAAATCAT | 0.943 |
| AGTTTAGTTA | 1.01 |
| CGACATTTGG | 1 |
| GCACCTTAAC | 1.24 |
| CTCTGACTAC | 4.51 |
| AGAAAAAGAA | 0.946 |

| Sequence | switch fluorescence ratio |
| --- | --- |
| CATTGCTCCG | 1.93 |
| TGCCTAAGAG | 1.02 |
| ACCCCCAGGC | 1.7 |
| ATTTTGCAGT | 1.01 |
| GTGTGGCGGT | 1.2 |
| TTGTTTGCCC | 1.02 |
| CACGCAAGAG | 5.25 |
| AGTAAGTGGT | 0.997 |
| CCCATTAGCG | 0.984 |
| TCGCGATGTT | 1.03 |
| ACATTGGGA | 1.01 |
| TGATTATATG | 1.02 |
| CTTAGCCGGC | 1.06 |
| GCCATGAGAT | 1 |
| ACAGTTGAGG | 0.998 |
| AGAAAACTAC | 1.04 |
| TTTCGAGTA | 0.999 |
| GACAAATTT | 1.06 |
| GTAGATTAGC | 0.961 |
| GCTCATGCAT | 1.12 |
| ACAAAATAAT | 0.982 |
| TGCATACAAG | 0.976 |
| ACCTAGACAT | 1.04 |

| Sequence | switch fluorescence ratio |
| --- | --- |
| GCGCAGAGCT | 1.1 |
| AAAGTACTAC | 1.22 |
| CTAAAGAAGG | 0.974 |
| ACAAGGCGAT | 0.988 |
| ACGTGCGGCT | 1 |
| TTTCGCGCTG | 0.958 |
| AGACTTGGGT | 0.973 |
| GTTCAGCCGG | 1.03 |
| ACTCAAGGGC | 1.21 |
| TAGTTTCGTA | 0.992 |
| CTTCTGACCG | 1.35 |
| CAGGTGAGCT | 1.43 |
| GCAGTGAGGC | 0.974 |
| GAGTGCGCTC | 0.92 |
| ATAGCCTGGG | 1.01 |
| GTTCGTTTTT | 0.969 |
| ACGGATTCAC | 1.17 |
| TGGGCTTGGC | 0.967 |
| TTATATGGTA | 1.04 |
| CGTGCCCGCG | 1.01 |
| TACTGTGAAT | 0.957 |
| TAGCTTGGAA | 0.963 |
| CCCACAGATC | 1.14 |

| Sequence | switch fluorescence ratio |
| --- | --- |
| GCTTTTGAAC | 0.998 |
| AAAGCTAGAG | 1.04 |
| CGTTCGGTTA | 1.05 |
| AAATCGGACT | 1.02 |
| CTGATACGTT | 0.95 |
| CAGGGCTCGA | 1.02 |
| AACTATGTTT | 1.01 |
| TAATAAAGCC | 1 |
| TCACACGTAG | 1.06 |
| GCGGGCGAAG | 0.998 |
| ACGATACGGG | 1.45 |
| GTATTTGTTA | 0.972 |
| GCCTGGTGTA | 1.3 |
| TAAATTGGCT | 1.06 |
| TGCGTATGTT | 0.984 |
| GGAGGAGAA | 0.99 |
| TGTTTGAGGA | 0.983 |
| AATTTAGTCA | 1.03 |
| CGATGAAG | 1 |
| ATATTGTAGG | 1.01 |
| CGAAAATTAG | 0.958 |
| TGGTAGGCGG | 0.989 |
| TGTGTTGT | 0.972 |

| Sequence | switch fluorescence ratio |
| --- | --- |
| TAATGGCTTC | 1.02 |
| AGTGCGTCCA | 0.969 |
| GGGGTTGCTA | 0.981 |
| TGGATGCCAG | 0.993 |
| TAGAGAATGT | 0.993 |
| CGCGGAAAGC | 1.1 |
| GGGAAGTTGA | 0.992 |
| AGGGGATTCC | 1.17 |
| CCAGTTCGCG | 1.01 |
| TTAAACTGCG | 1.03 |
| TAGGGTTAT | 0.963 |
| TCGCGGTAGT | 0.986 |
| AAACTCACAT | 1.17 |
| CGGGCATCGC | 1.01 |
| TCCTTCCAT | 1.01 |
| GCGTTCGGTG | 1.02 |
| TGGCGGTGCG | 1 |
| AGAACTCAGT | 1.16 |
| GGCCGTCCT | 1.2 |
| GCACTTTGGG | 0.942 |
| GTTAGGTCGG | 1.02 |
| AACGAGGTTT | 0.992 |
| GCGGGGTCCT | 1.02 |

| Sequence | switch fluorescence ratio |
| --- | --- |
| GTGGACGACA | 1.04 |
| TAAGATAAGT | 1.02 |
| TGCAAGTCGG | 1 |
| CCATTTCTAG | 1.02 |
| CGCTGGGGG | 0.994 |
| CAAGTTGCAC | 1 |
| TGCATCAGGA | 1 |
| TTCTCTGGCG | 0.998 |
| TACAACTCAT | 1.02 |
| AGTACTTTAT | 1.03 |
| ACAGCCTCAA | 0.914 |
| TGCCAATCGT | 1 |
| GCTAAGTCTA | 1 |
| AATGCGCGGA | 0.979 |
| GATCGTGGCT | 0.99 |
| TAACCAGCGA | 1.68 |
| TCCAAGTCTA | 1.02 |
| TACTACTGTG | 0.997 |
| ACTGATCCCT | 1.01 |
| TTGCCGTAGG | 0.995 |
